# From article PMC4336329 (PLoS ONE, 2015)
# About 2,200 (0.71%) of roughly 310,000 compounds showed an effect of 50% or more. The effect is printed as a negative number. This is one part of the list.
# Molecular target: human ether-à-go-go-related gene (hERG) potassium channel (human, UniProt Q12809)
# Experiment: primary screen, population patch clamp on CHO cells stably expressing hERG
# Chain of human ether-à-go-go-related gene (hERG) potassium channel (Q12809 whole entry, looked up): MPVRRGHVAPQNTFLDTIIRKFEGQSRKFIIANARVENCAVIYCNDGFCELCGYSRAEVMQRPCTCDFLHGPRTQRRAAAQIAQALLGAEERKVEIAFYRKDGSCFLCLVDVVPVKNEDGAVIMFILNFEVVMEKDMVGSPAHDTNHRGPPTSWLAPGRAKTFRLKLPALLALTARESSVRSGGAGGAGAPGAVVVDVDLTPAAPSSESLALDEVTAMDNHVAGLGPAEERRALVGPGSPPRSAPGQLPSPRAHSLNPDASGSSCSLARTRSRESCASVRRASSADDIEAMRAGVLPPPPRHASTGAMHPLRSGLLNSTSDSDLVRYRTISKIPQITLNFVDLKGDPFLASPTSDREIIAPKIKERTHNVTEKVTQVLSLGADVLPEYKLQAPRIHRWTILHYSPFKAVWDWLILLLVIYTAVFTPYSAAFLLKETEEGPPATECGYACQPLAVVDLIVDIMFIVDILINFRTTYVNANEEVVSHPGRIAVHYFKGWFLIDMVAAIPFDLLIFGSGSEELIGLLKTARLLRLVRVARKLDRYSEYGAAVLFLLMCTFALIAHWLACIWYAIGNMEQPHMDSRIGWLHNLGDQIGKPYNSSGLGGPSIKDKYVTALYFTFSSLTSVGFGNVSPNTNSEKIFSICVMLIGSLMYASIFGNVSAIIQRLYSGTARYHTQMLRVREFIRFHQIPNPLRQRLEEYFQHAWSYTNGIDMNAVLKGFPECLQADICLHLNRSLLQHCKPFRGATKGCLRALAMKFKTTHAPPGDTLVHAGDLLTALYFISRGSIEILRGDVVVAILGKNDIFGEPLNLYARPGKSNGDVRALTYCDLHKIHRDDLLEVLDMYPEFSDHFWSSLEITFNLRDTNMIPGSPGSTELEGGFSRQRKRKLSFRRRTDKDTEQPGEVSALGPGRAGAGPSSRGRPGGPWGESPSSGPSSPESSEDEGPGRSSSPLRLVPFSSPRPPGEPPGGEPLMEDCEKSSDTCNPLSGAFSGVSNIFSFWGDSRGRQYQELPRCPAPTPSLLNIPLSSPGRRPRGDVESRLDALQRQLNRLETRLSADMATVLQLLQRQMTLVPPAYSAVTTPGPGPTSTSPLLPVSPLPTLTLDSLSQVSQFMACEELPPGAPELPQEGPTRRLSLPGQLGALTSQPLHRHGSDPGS
row,SMILES,"hERG current change (%, negative = inhibition) at 1uM"
1,Cc1c(C#N)c2ncn(CC#N)c(=O)c2n1-c1ccccc1,5.01%
2,O=C(c1ccc(Cl)c(S(=O)(=O)N2CCCC2)c1)N1CCCC(C(F)(F)F)C1 (stereo not drawn),-4.61%
3,Cc1ccc([N+](=O)[O-])cc1S(=O)(=O)NCCc1cn2ccccc2n1,9.23%
4,CC(C)C(NC(=O)c1ccccc1Br)c1ccccc1 (stereo not drawn),9.81%
5,CC(C)(C)c1ccc(S(=O)(=O)N(CCCN2CCOCC2)Cc2cccs2)cc1.O=C(O)C(=O)O,2.93%
6,COc1ccc(Cl)cc1S(=O)(=O)N1CCN(C)CC1,11.3%
7,Cl.Cn1cccc1CNCc1ccc(F)cc1,13.7%
8,CC(C)OC(=O)c1ccc(NC(=O)Cn2c(-c3nonc3N)nc3ccccc32)cc1,17.1%
9,COc1ccc(C(=O)c2nc3ccccc3n2C(C)C)cc1,5.44%
10,COc1cccc(C(=O)NCc2ccco2)c1OC,10.8%
11,CCN(CC)c1ccc(/C=N/NC(=O)c2c[nH]c3ccccc23)cc1,9.89%
12,Cc1ccc(CNC(=O)C(NS(=O)(=O)c2cccc3nsnc23)c2ccccc2)cc1 (stereo not drawn),-8.32%
13,COc1ccc(CN(C)CC(=O)N2CCc3ccccc3C2)cc1,-2.69%
14,Cc1cccc(C(C)C)c1NC(=O)COC(=O)CN1C(=O)C2CC=CCC2C1=O (stereo not drawn),16%
15,C#CCSc1ncc(-c2ccccc2)cn1,10.2%
16,C/C(=N\NC(=O)C1(C)CC1(Br)Br)c1ccc(C)cc1C (stereo not drawn),12.9%
17,COC(=O)C1C(c2ccc(OC)cc2)C(C(=O)OC)S(=O)(=O)C(CCN2CCCCC2)S1(=O)=O (stereo not drawn),7.99%
18,Cc1ccccc1CN1C(=O)[C@@H]2Cc3c([nH]c4ccccc34)C(C)(C)N2C1=O,12.9%
19,COC(=O)Cc1cn(-c2ncc(C(F)(F)F)cc2Cl)c2ccccc12,13.7%

row,SMILES,"hERG current change (%, negative = inhibition) at 1uM"
1,S=c1[nH]nc(-c2ccc(Cl)cc2Cl)n1Cc1ccccc1,4.66%
2,Cc1ccnc(NC(=O)c2cccc([N+](=O)[O-])c2C)c1,-4.11%
3,Cc1ccc(S(=O)(=O)N2CCC(C(=O)N[C@@H](C)C(=O)NCCc3ccccc3)CC2)cc1,13.4%
4,Cc1c(Cl)cccc1N1C(=O)CC(NNC(=O)c2cccnc2)C1=O (stereo not drawn),15.9%
5,CCCCCCCCCCOC(=O)Cn1c(COc2ccccc2)[n+](C)c2ccccc21.[Cl-],-46.5%
6,O=c1c2c(c(-c3ccccc3)nn1Cc1ccccc1)CCCC2,8.22%
7,O=C(CSc1nnc(-c2ccncc2)o1)Nc1ccc(F)c(F)c1,1.5%
8,Nc1cc(C(=O)OCC(=O)NC(c2ccccc2)c2ccccc2)ccc1Cl,10%
9,CCOc1ccc(NC(=O)CC2C(=O)N(c3ccccc3)C(=O)N2CCOC)cc1 (stereo not drawn),6.77%
10,COc1cc(/C=N/n2c(-c3ccc4c(c3)NC(=O)CO4)csc2=Nc2cccc(C)c2)ccc1O,-5.39%
11,CN(C)S(=O)(=O)c1cccc(NC(=S)NN=C(Cc2ccccc2)Cc2ccccc2)c1,-4.13%
12,O=C(Nc1ccc(NC(=O)C2CC2)nc1)c1cccc(F)c1,5.67%
13,CCOC(=O)Nc1ccc2c(C)cc(=O)oc2c1,1.32%
14,O=C(Nc1ccccc1)N1CCN(c2ccc(C(F)(F)F)cn2)CC1,-4.48%
15,CCCCn1c(=O)c(CCC(=O)O)nc2ccccc21,12.4%
16,OCC1(CCc2ccccc2)CCN(C/C=C/c2ccccc2)CC1,-86.4%
17,CSc1nc2nccc(-c3ccc(Cl)cc3)n2n1,7.08%
18,O=c1[nH]c(-c2cccnc2)nc2ccccc12,6.58%
19,COc1ccc(/C=N/NC(=O)C(C)N(c2ccc(OC)cc2)S(C)(=O)=O)cc1 (stereo not drawn),6.17%

row,SMILES,"hERG current change (%, negative = inhibition) at 1uM"
1,CCCn1c(SCC(=O)NC2CCCC2)nnc1-c1cccnc1,13.7%
2,Nc1oc2ccccc2c(=O)c1-c1ccc2c(c1)OCO2,5.96%
3,C/C(=N\Nc1ccc([N+](=O)[O-])cc1)c1ccc(C#N)cc1,13.2%
4,CC(=O)Nc1ccc(NC(=O)CCCc2ccccc2)cc1,10.7%
5,C=C(C)CNC(=S)N/N=C/c1ccco1,9.15%
6,COc1cccc2cc(C(=O)NC3CC(C)(C)NC(C)(C)C3)c(=O)oc12,10.8%
7,COc1ccccc1N1CCN(CC(=O)c2ccc3ccn(C(C)=O)c3c2)CC1,6.61%
8,CC(=O)Nc1ccc(NS(=O)(=O)C(F)(F)F)cc1,21.2%
9,COC(=O)c1ccc(OC(=O)c2cccnc2SC)cc1,18.3%
10,CCCN(CC(=O)Nc1ccccc1C)C(=O)c1ccc(COc2ccccc2)cc1,14.9%
11,Cc1ccc(NC(=S)NC(=O)c2c(-c3ccccc3Cl)noc2C)cc1,-9.22%
12,CCOc1ccc(NC(=O)c2cccc(OC(=S)N3CCOCC3)c2)cc1,9.03%
13,O=C(O)c1ccccc1C(=O)Nc1ccc(-n2ccc(C(F)(F)F)n2)cc1,12.4%
14,CCOC(=O)c1c(C)[nH]c(C(=O)OCC(=O)Nc2cc(Cl)ccc2OC)c1C,-14.6%
15,O=C(O)c1ccccc1C(=O)NCc1ccccc1,5.29%
16,COc1cc(/C=N/NC(=O)C(=O)NCC2CCCO2)ccc1O (stereo not drawn),14.4%
17,O=C(CN(C(=O)Cn1nnc(-c2ccccc2F)n1)c1cnc2ccccc2c1)NCC1CCCO1 (stereo not drawn),4.98%
18,CN(CCc1cnn(C)c1)C(=O)C1CCC(=O)N(CC2CCCCC2)C1 (stereo not drawn),20.3%
19,COC(=O)[C@H]1C[C@H]1[C@@H](NC(=O)c1cccnc1)c1ccccc1,11.4%
